Screen size: about 200,000 compounds; about 4,500 (2.2%) were called active. Inconclusive means that the source gave no clear call. Such entries were picked first, then a sample of the others. The call rests on the fitted dose curve; in most records, active means well fitted inhibition curve with a large enough effect; inconclusive means small, poorly fitted or top-dose-only effect, or effect the other way; inactive means flat fitted curve, though single readings scatter. Potencies beside an inconclusive call are fits to weak or partial responses and may not hold up.
What follows are compounds tested against Cruzipain (Trypanosoma cruzi) (UniProt P25779) (assay: qHTS Assay for Promiscuous and Specific Inhibitors of Cruzain (without detergent)). Details: purified cruzain, Z-FR-AMC fluorescence, no detergent.
Chain of UniProt P25779 (P25779 whole entry, looked up): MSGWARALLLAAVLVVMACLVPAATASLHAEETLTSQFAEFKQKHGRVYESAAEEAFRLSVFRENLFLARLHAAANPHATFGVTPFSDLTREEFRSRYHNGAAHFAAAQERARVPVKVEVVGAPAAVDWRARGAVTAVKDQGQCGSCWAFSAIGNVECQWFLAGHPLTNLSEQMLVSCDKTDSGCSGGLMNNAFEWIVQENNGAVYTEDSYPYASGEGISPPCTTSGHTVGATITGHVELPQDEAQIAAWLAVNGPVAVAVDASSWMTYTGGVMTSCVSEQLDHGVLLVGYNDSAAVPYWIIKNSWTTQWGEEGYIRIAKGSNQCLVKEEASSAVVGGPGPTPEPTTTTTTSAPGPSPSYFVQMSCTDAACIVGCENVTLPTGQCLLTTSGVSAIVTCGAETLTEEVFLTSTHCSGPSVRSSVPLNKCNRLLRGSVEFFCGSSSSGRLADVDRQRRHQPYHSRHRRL
Outline: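 Purified cruzain at 1.5 nM, pre-incubated 15 min with compound at room temperature in 100 mM sodium acetate pH 5.5, 5 mM DTT, 0.00005% Triton X-100. Reaction started with 2 uM Z-FR-AMC; AMC fluorescence increase over 60 s gives rate.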
Further: nearly all actives have a fitted effect of over 40% in size.
Potency means the concentration at half of the fitted maximal effect; tags describe the fitted curve by direction and shape.
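Wherever max response, negative = inhibition is given: plate controls were enzyme without inhibitor for no effect and buffer without enzyme for full effect.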

Structure (SMILES) | Potency | max response, negative = inhibition
Cn1c(=O)n(CCc2ccccc2)c(=O)c2c1ncn2Cc1ccccc1 | inconclusive: 31.6 µM [activator, single point] | 
CCOC(=O)C(NCc1ccc(F)cc1)(NC(=O)c1ccccc1)C(F)(F)F (configuration not stated) | inconclusive: 39.8 µM [inhibitor, single point] | 
CCn1c(COc2ccc(Cl)c(C)c2)nnc1SCC(=O)N1CCCC1 | inconclusive: 39.8 µM [activator, single point] | 
O=C(CSc1ccc(-c2nc3ccccc3[nH]2)cn1)Nc1ccc(S(=O)(=O)N2CCCC2)cc1 | active: 31.6 µM | 
COC(=O)c1c(NC(=O)COc2ccccc2Cl)sc2c1CCC(C(C)(C)C)C2 (configuration not stated) |  | inactive: -7.36%
Cc1ccc2c(c1)cc(C)c1nnc(SCC(=O)NCc3ccco3)n12 | inconclusive: 31.6 µM [activator, single point] | 
Cc1nc2cccnc2n1C1CCN(S(=O)(=O)c2ccc(C(C)C)cc2)CC1 |  | inactive: 8.62%
Cc1cccc(-n2ncc(C(=O)NCc3ccco3)c2C2CCN(C(=O)OC(C)(C)C)CC2)c1 |  | inactive: 18.1%
CC1=CCC(/C=N\Nc2nnc3c(n2)[nH]c2ccccc23)CC1 (configuration not stated) | inconclusive: 39.8 µM [inhibitor, single point] | 
COC(=O)C1=C(C)NC(=O)C1(NS(=O)(=O)c1ccc(NC(C)=O)cc1)C(F)(F)F (configuration not stated) |  | inactive: -1.99%
CCCCCCC(=O)N1CCC(c2nc3c(nnn3Cc3ccccc3Cl)c(=O)[nH]2)CC1 | inconclusive: 31.6 µM [activator, single point] | 
CC/C(C)=N\N=C\c1c(O)n(CC)c2cc(C3=NNC(=O)CC3)ccc12 | inconclusive: 39.8 µM [activator, single point] | 
O=C(Cc1sc(-c2ccccc2Cl)nc1-c1ccccc1)Nc1ccc(F)cc1 | active: 15.8 µM | 
O=C(c1ccc(-n2c(SCc3cc(F)ccc3F)nc3ccccc3c2=O)cc1)N1CCOCC1 | inconclusive: 39.8 µM [activator, single point] | 
O=c1oc(-c2cccs2)nc2sc3c(c12)CCC3 | active: 12.6 µM | 
COc1ccc(Nc2nc(NCc3ccco3)nc(N/N=C/c3ccccc3F)n2)cc1 | inconclusive: 31.6 µM [inhibitor, single point] | 
CCCCCCCCCC(=O)OCC(CO)OC(=O)CCCCCCCCC (configuration not stated) |  | inactive: -1.05%
C[C@@H](NC(=O)CN(c1ccccc1)S(=O)(=O)N(C)C)c1ccccc1 |  | inactive: 15.3%
Cc1ccc2nc(-c3sc4nc(C)cc(C)c4c3N)[nH]c2c1 | inconclusive: 31.6 µM [activator, single point] | 
Cc1ccc(C)n1NC(=O)c1ccc(Cl)cc1 |  | inactive: -3.88%
CCOc1ccc2[nH]c(=O)c(CN(Cc3cccs3)Cc3nnnn3C(C)(C)C)cc2c1 | inconclusive: 25.1 µM [activator, single point] | 
Cc1cc2occ(CC(=O)OCC(=O)Nc3sc4c(c3C#N)CCC(C)C4)c2cc1C (configuration not stated) | inconclusive: 25.1 µM [inhibitor, single point] | 
COc1cc(OC)cc(C(=O)Nc2nc(-c3nnn(-c4ccc(F)c(Cl)c4)c3C)ns2)c1 | inconclusive: 0.01 µM [inhibitor, full curve, poor fit] | 

Structure (SMILES) | Potency | max response, negative = inhibition
O=C(O)CCN1C(=O)/C(=C\c2ccc(-c3nc4ccccc4s3)o2)SC1=S | inconclusive: 3.16 µM [activator, full curve] | 
CCn1cc(C(=O)NC2CCCCCC2)c2cc(OC)c(OC)cc2c1=O | inconclusive: 39.8 µM [activator, single point] | 
COc1ccc(S(=O)(=O)n2nc(-c3cc(OC)c(OC)c(OC)c3)cc2N)cc1OC | inconclusive: 31.6 µM [activator, single point] | 
Cc1ccc(/C(C#N)=C\c2ccc(N3CCOCC3)o2)cc1 | inconclusive: 39.8 µM [activator, single point] | 
Cc1nnc(SCC2=C(C(=O)O)N3C(=O)[C@@H](NC(=O)Cn4cnnn4)[C@@H]3SC2)s1 |  | inactive: -1.13%
COc1ccc(-c2cc(C)no2)cc1S(=O)(=O)N1CC(C)Oc2ccccc21 (configuration not stated) |  | inactive: 5.61%
COc1cccc(CNC(=O)c2nnc(Cc3ccc(Cl)cc3)o2)c1 |  | inactive: 5.68%
O=C(Nc1ccc2oc(-c3cc(Br)ccc3Cl)nc2c1)c1ccc2ccccc2c1 | inconclusive: 6.31 µM [inhibitor, single point] | 
C/C(=N/NC(=O)CNc1ccc(C)cc1)c1ccc(Cl)cc1 | inconclusive: 39.8 µM [inhibitor, single point] | 
CCOc1ccc(NC(=O)c2noc3c2CSc2ccccc2-3)cc1 | inconclusive: 15.8 µM [activator, partial curve] | 
CCOc1cc(/C=C2/NC(=S)NC2=O)ccc1OCc1ccc([N+](=O)[O-])cc1 | inconclusive: 31.6 µM [inhibitor, single point] | 
COc1ccccc1NC(=O)c1sc(-c2ccc(Cl)cc2)cc1N | inconclusive: 39.8 µM [inhibitor, single point] | 
Cc1cc(C)c2oc(C(=O)Nc3ccc(S(=O)(=O)Nc4ncccn4)cc3)cc(=O)c2c1 | inconclusive: 3.98 µM [activator, single point] | 
N#CC1=C(N)C(C#N)(C#N)[C@H](c2c(F)cccc2F)[C@H]2CC3(CC=C12)OCCO3 | inconclusive: 31.6 µM [activator, single point] | 
FC(F)(F)c1nc2ccccc2nc1N/N=C/c1ccc(Cl)cc1 | inconclusive: 31.6 µM [inhibitor, single point] | 
CCOC(=O)C(C)Oc1cccc2c(=O)n(CC(=O)N3CCc4ccccc43)ccc12 (configuration not stated) | inconclusive: 31.6 µM [activator, single point] | 
CCN(CC)C(=O)c1sc2c(c1C)c(=O)n(Cc1ccccc1)c(=O)n2Cc1cc(C)ccc1C | inconclusive: 31.6 µM [activator, single point] | 
O=C(NCc1ccccc1)c1cnc2sc(N3CCCC3)nn2c1=O |  | inactive: 5.23%
Clc1cccc(Nc2nnc(-c3ccccc3)c3ccccc23)c1 | inconclusive: 3.16 µM [activator, full curve] | 
O=C(Nc1cccc(C(=O)OCc2cc(=O)n3c4c(sc3n2)CCCC4)c1)c1ccc(Cl)cc1 |  | inactive: -0.605%
Cc1ccc(CSCCNC(=O)/C=C/c2ccc(Cl)cc2)cc1 | active: 12.6 µM | 
O=C(Cn1cc(SCc2ccc(F)cc2)c2ccccc21)N1CCCCC1 |  | inactive: 0.0316%
CC(=O)N/C(=C/c1ccccc1)C(=O)NC(Cc1ccccc1)C(=O)O (configuration not stated) |  | inactive: 7.57%

Structure (SMILES) | Potency | max response, negative = inhibition
Cc1ccc(Cn2c(C)c3cnn(CC(=O)O)c(=O)c3c2C)cc1 |  | inactive: -4.43%
N#Cc1ccc(-c2ccccc2)nc1SCC(=O)c1cccc(Cl)c1 | active: 12.6 µM | 
O=C1NC2=C(C(=O)c3ccccc32)C(c2ccccc2)N1 (configuration not stated) | inconclusive: 39.8 µM [inhibitor, single point] | 
COc1cc(C2C(C#N)=C(N)Oc3c2ccc2ccccc32)ccc1OCC(=O)Nc1ccc(C)cc1 (configuration not stated) | active: 10 µM | 
O=C(NCCCn1ccnc1)c1ccc(S(=O)(=O)N2CCCCCC2)cc1 | inconclusive: 39.8 µM [activator, single point] | 
CCOc1cccc(C(=O)Nc2ccc3oc(-c4ccncc4)nc3c2)c1 | inconclusive: 25.1 µM [activator, single point] | 
Cc1ccc(-c2nc(SCC(=O)NCCN3C(=O)CSC3=O)[nH]c2-c2ccc(C)cc2)cc1 | inconclusive: 31.6 µM [activator, single point] | 
N#CC1(Cc2ccc(Cl)cc2)c2ccccc2C=CN1C(=O)c1ccccc1 (configuration not stated) | inconclusive: 39.8 µM [inhibitor, single point] | 
COc1cc(OC)cc(C(=O)NC(=S)Nc2ccc3c4c(cccc24)CC3)c1 | inconclusive: 31.6 µM [inhibitor, single point] | 
COc1ccc(-c2nc(CN3CCC(C(=O)NCc4ccc(C)cc4)CC3)c(C)o2)cc1OC | inconclusive: 31.6 µM [activator, single point] | 
Cc1cccc(NC(=O)CSc2nnc(CNC(=O)c3ccc(S(=O)(=O)N(C)C)cc3)n2-c2cccc(C)c2)c1 | inconclusive: 31.6 µM [activator, single point] | 
O=C(CN1C(=O)c2cccc3cccc1c23)Nc1ccc2c(c1)OCO2 |  | inactive: -26.2%
CCc1ccc(N2C(=O)CC(NNc3nc4ccccc4s3)C2=O)cc1 (configuration not stated) | inconclusive: 39.8 µM [inhibitor, single point] | 
C=CCn1c(N)c(C(=O)OC(C)CC)c2nc3ccccc3nc21 (configuration not stated) | inconclusive: 15.8 µM [activator, partial curve] | 
COc1ccc2nc(SCC(=O)NC3CCCc4ccccc43)[nH]c2c1 (configuration not stated) |  | inactive: -27%
CC(=O)CCc1ccccc1 | inconclusive: 5.01 µM [activator, partial curve, poor fit] | 
O=C(COc1ccccc1Cl)NC(=S)Nc1cccc(NC(=O)c2ccccc2Cl)c1 | inconclusive: 39.8 µM [inhibitor, single point] | 
Clc1ccc2[nH]c3c(NCC4CCCO4)ncnc3c2c1 (configuration not stated) | active: 20 µM | 
Cc1nn(-c2ccc(N3CCCCC3)nn2)c(C)c1CCC(=O)NCc1ccccc1 |  | inactive: -3.36%
COCCNC(=O)c1c(N)n(CCC(C)C)c2nc3ccccc3nc12 | inconclusive: 25.1 µM [activator, single point] | 
COc1ccc(OC)c(CNC(=O)C2CCN(S(=O)(=O)N3CCCC3)CC2)c1 |  | inactive: -7.62%

— PubChem BioAssay AID1476 (National Center for Advancing Translational Sciences (NCATS), 2009)
